Measured values from patent US20250376539A1 (KIRA PHARMACEUTICALS SUZHOU, published 2025).

What was measured:
[1] = target: T1, recombinant cynomolgus (cyno) complement C2 (XP_005553508.1), C-terminal 6His-tag, made in house (CHO cell … (cynomolgus monkey (Macaca fascicularis), UniProt P06681 21-752 (human entry))); assay: BLI (Gator); ratio of dissociation at pH 5.8 to pH 7.4
T1 construct: also called cyno C2; Cyno C2
T1 chain: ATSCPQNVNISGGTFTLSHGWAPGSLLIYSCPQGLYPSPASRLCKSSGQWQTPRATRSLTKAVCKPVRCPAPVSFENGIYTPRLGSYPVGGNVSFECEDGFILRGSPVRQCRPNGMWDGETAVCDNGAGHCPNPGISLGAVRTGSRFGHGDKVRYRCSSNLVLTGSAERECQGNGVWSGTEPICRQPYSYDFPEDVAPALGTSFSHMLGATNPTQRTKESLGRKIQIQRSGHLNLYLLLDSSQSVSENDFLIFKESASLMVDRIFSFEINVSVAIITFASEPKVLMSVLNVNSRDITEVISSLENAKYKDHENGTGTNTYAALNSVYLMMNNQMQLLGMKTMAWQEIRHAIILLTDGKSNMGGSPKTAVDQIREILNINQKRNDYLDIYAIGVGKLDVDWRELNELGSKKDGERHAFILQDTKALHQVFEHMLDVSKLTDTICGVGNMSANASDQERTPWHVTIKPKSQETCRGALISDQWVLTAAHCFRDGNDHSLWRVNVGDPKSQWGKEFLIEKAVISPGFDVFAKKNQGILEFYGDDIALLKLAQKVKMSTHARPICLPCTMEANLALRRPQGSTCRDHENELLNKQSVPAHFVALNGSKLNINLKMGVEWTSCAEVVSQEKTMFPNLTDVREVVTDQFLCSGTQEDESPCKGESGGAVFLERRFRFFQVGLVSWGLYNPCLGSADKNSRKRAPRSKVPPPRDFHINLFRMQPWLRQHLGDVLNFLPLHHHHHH
Procedure: (§1) The histidine mutant constructs in Table 4 were tested for their pH-dependent dissociation from human C2. Probe-immobilized anti-C2 antibodies were incubated with C2 at pH 7.4 for 600s, followed by a 600s dissociation period in K Buffer at pH 7.4 or pH 5.8. The data were processed and analyzed by the Gator evaluation software.
(§2) Non-fusion mAb were used for comparison.

[2] = target: T2, recombinant human complement C2 (NP_000054.2), C-terminal 6His-tag, made in house (CHO cell expression) (human, UniProt P06681 21-752); assay: as above
T2 construct: a linker before the tag is not described; also called human C2; Human C2
T2 sequence: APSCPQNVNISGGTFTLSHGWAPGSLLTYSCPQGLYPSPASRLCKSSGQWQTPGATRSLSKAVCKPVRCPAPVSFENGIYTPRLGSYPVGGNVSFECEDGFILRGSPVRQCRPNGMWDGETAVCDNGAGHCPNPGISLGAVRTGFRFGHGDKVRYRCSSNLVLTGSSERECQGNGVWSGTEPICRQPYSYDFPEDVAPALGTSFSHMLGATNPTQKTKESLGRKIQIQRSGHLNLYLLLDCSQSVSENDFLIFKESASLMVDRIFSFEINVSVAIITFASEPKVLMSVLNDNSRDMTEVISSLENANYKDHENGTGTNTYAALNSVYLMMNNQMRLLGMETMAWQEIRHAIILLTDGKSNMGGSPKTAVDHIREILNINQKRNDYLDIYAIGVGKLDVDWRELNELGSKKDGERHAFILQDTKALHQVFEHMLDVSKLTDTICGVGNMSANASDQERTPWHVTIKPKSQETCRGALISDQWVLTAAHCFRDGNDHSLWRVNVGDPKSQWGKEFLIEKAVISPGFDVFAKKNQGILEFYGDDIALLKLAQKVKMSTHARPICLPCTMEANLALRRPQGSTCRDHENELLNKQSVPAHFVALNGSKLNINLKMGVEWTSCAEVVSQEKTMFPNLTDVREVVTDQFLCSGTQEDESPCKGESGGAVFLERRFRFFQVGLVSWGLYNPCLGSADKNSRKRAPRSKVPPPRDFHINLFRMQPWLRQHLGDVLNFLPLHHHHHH
Procedure: as §1, §2

[3] = target: T3, human complement C2 in normal human serum (human, UniProt P06681 21-752); assay: cell-based or functional assay
T3 sequence: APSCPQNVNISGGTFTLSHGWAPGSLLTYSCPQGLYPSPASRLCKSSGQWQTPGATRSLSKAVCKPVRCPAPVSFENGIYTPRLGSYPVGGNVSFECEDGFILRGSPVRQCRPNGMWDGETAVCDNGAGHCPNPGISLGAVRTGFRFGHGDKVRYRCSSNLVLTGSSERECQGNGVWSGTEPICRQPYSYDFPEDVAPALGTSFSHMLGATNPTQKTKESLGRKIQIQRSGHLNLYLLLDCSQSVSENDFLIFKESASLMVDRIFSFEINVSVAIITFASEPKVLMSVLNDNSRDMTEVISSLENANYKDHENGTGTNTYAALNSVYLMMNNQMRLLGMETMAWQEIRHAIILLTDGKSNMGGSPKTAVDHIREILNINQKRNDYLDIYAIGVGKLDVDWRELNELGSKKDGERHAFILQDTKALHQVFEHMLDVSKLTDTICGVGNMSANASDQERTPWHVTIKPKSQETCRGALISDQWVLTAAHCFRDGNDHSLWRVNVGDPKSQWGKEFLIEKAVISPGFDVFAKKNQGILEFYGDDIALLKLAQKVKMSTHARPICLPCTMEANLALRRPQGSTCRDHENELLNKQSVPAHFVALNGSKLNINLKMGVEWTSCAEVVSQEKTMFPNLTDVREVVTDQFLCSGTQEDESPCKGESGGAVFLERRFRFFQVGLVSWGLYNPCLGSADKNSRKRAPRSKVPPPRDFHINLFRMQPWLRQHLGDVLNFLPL

B1: 69.44FH (Factor H 1-5 fusion with 69.44; FH1-5 fused to the heavy chain C-terminus) (other)
heavy: QVQLVQSGAEVKKPGASVKVSCKASGYSFTTYYMYWVRQAPGQGLEWMGIITPSGGSTTYAQKFQDRVTMTRDASTTTVYMELSSLRSEDTAVYYCARGYEGSYGFDHWGQGTLVTVSSASTKGPSVFPLAPCSRSTSESTAALGCLVKDYFPEPVTVSWNSGALTSGVHTFPAVLQSSGLYSLSSVVTVPSSSLGTKTYTCNVDHKPSNTKVDKRVESKYGPP[human IgG4 Fc with S228P M428L N434A (EU numbers) not shown]EDCNELPPRRNTEILTGSWSDQTYPEGTQAIYKCRPGYRSLGNIIMVCRKGEWVALNPLRKCQKRPCGHPGDTPFGTFTLTGGNVFEYGVKAVYTCNEGYQLLGEINYRECDTDGWTNDIPICEVVKCLPVTAPENGKIVSSAMEPDREYHFGQAVRFVCNSGYKIEGDEEMHCSDDGFWSKEKPKCVEISCKSPDVINGSPISQKIIYKENERFQYKCNMGYEYSERGDAVCTESGWRPLPSCEEKSCDNPYIPNGDYSPLRIKHRTGDEITYQCRNGFYPATRGNTAKCTSTGWIPAPRCTLKP
light: SYELTQPPSVSLSPGQTASITCSGDKLGNKYTCWYQQKPGQSPVLVIYQDNKRPSGIPERFSGSNSGNTATLTISGTQAMDEADYYCQTWDSSTAVFGGGTKLTVLGQPKAAPSVTLFPPSSEELQANKATLVCLISDFYPGAVTVAWKADSSPVKAGVETTTPSKQSNNKYAASSYLSLTPEQWKSHRSYSCQVTHEGSTVEKTVAPTECS
notes: Antibody-factor H fusion protein
Question: With B1 as the binder, how does the “Fold dissociation pH 5.8/pH 7.4” value [1] read?
Answer: 4.32 fold

Question: What about the “Fold dissociation pH 5.8/pH 7.4” value [2] of the same binder?
Answer: 0.54 fold

Question: What about the “IC50, Mannan-C3b ELISA (lectin pathway), 1% human serum” value [3] of the same binder?
Answer: 1.31 nM

Question: What about the “IC50, Mannan-C3b ELISA (lectin pathway), 50% human serum” value [3] of the same binder?
Answer: 141 nM

Question: And the “IC50, inhibition of sheep RBC lysis, 1% human serum” value [3]?
Answer: 0.51 nM

Question: And the “IC50, inhibition of sheep RBC lysis, 50% human serum” value [3]?
Answer: 30.5 nM
